The list shows a part of the results.

Here are results for 57 sequences from the supplement of paper PMC11417369.

The experiment concerns PfHDP1 homeodomain (GST-tagged). Nature of the experiment: gcPBM binding intensity (ln(normalized median fluorescence intensity)); higher = stronger DNA binding. Put shortly: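 Each value is the highest Masliner-normalised natural-log median intensity across replicate spots of either orientation of a probe. The probes were primer-extended double-stranded 36-bp intergenic genomic sequences on an Agilent 4 × 180k array, alongside negative controls, exposed for 1 h to GST-tagged P. falciparum DNA-binding domains expressed in E. coli. Bound protein was picked up with Alexa488 anti-GST antibody and scanned at 488 nm.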
Regarding “AAAAAATAAATAAATATACACACCATATATATATTT [CACACA_site2854]”, the “gcPBM binding intensity (ln)” value was 6.46.

For the sequence “TCTAATGTAATGCATACACACAACTATCCATCAAAA [CACACA_site534]”, the “gcPBM binding intensity (ln)” value is 6.6.

On to TATATATATATATGAGTGCATATGTGTAATATAAAA, for which the “gcPBM binding intensity (ln)” value was 9.65.

For the sequence “TACAAAATATTTTACACACACATATAAATACCTATA [CACACA_site7272]”, the “gcPBM binding intensity (ln)” value worked out at 6.97.

With “TATATAATTATTTGATGTACACTACAATGTATTTGT [XGTACX_site7991]”, the “gcPBM binding intensity (ln)” value came to 6.76.

For the sequence “TTATGTTCTTAATGCACACTTATAAGTATCTTATAA [CACACA_site1394]”, the “gcPBM binding intensity (ln)” value worked out at 9.72.

“AATACAATATAAAGGTGTACATATATATATATATAT [XGTACX_site68]”: the “gcPBM binding intensity (ln)” value worked out at 9.26.

With “AAAAAAAAAAAAAAAACACACACAACACCCATACCT [CACACA_site9208]”, the “gcPBM binding intensity (ln)” value is 6.86.

In the case of “ATGTAGATAGATAGGGTGCTAAAAATAAGATTTATA [GTGCAC_site9602]”, the “gcPBM binding intensity (ln)” value is 6.67.

On to “TATAAGCAAAGACACACACACATATAAATATAAATA [CACACA_site7740]”, for which the “gcPBM binding intensity (ln)” value worked out at 6.72.

In the case of “TATAAAATATATATCTGTACGTATTTTATTTTTTAT [XGTACX_site6257]”, the “gcPBM binding intensity (ln)” value stood at 6.14.

Regarding “ATAATACACAAGCACACACACACACGGATATTTATA [CACACA_site6714]”, the “gcPBM binding intensity (ln)” value was 7.31.

For “ATAATTATATTTTATTCACACATCGTTATATAGTAA [CACACA_site4743]”, the “gcPBM binding intensity (ln)” value was found to be 6.51.

As to “AATTATTCATAAAATGCATGTACATGGTTTAATATT [TGCATGCA_site87]”, the “gcPBM binding intensity (ln)” value turned out to be 6.65.

“ATACATGTTTTATGTGCACACAAAGTTGTTATGAGG [CACACA_site4032]”: the “gcPBM binding intensity (ln)” value is 10.8.

Take “TCGTAAACTTTATGCACACACATATACATATTTCAT [CACACA_site739]”: the “gcPBM binding intensity (ln)” value was 10.1.

As for “ACATGATAAATAGTCACACATAAATATAATATATAT [CACACA_site5207]”, the “gcPBM binding intensity (ln)” value was determined as 6.69.

Regarding “ATTATGGATACATAAACACACATATATATAAAAAAA [CACACA_site4303]”, the “gcPBM binding intensity (ln)” value came out at 6.86.

As for “TATGTATATTTAAATGCATGTGATTATTTTTGACTT [TGCATGCA_site568]”, the “gcPBM binding intensity (ln)” value amounted to 6.19.

As to TTATAAATTTAAAAAGTGCATAATAATAACAAAAAG, the “gcPBM binding intensity (ln)” value was found to be 8.81.

As for “ACTTTTTTTTTTTTTTTAGATTACATAAATATAAAT [CACACA_negctrl_site139]”, the “gcPBM binding intensity (ln)” value worked out at 6.56.

Regarding “AACACAATAAAAATTAAAAATGTTAAGTAAATATAA [GTGCAC_negctrl_site60]”, the “gcPBM binding intensity (ln)” value was found to be 6.21.

On to “TTATAATTTAATAAATGTACATAAATAATATACATA [XGTACX_site7271]”, for which the “gcPBM binding intensity (ln)” value was determined as 6.14.

Consider “AGACAATATCTTATTTGTACATATGTATTCCTCATA [XGTACX_site5757]”, for which the “gcPBM binding intensity (ln)” value came to 6.93.

Regarding “TATTTTTATTTTCCTTCACACATTTTTTATATTTTT [CACACA_site5830]”, the “gcPBM binding intensity (ln)” value worked out at 6.7.

On to “AAAAAAAAAAAAAAAACACACATATAGATTATTGTA [CACACA_site7797]”, for which the “gcPBM binding intensity (ln)” value came to 6.61.

With “TTTTAATTTATCGACACACGCATGAATAGAAATTAG [CACACA_site3361]”, the “gcPBM binding intensity (ln)” value came out at 6.24.

AAGTACAATTCATGTATGCACTTTATTATATTTTAT: the “gcPBM binding intensity (ln)” value was 7.33.

Consider “TATAATATGTATATCTGTACATATTTTAAATCTAAT [XGTACX_site2426]”, for which the “gcPBM binding intensity (ln)” value came to 5.97.

With “AAGATAAAATAATAAAGTACACATATAAATTGAAAA [XGTACX_site2113]”, the “gcPBM binding intensity (ln)” value was determined as 6.56.

Turning to “TTTCTTTTTAAATAATAATGTATAATAAAAAGTTCA [TGCATGCA_negctrl_site195]”, the “gcPBM binding intensity (ln)” value was found to be 6.08.

For “TTTGTTTGATATATGTGTACATATATATATTATGCT [XGTACX_site3522]”, the “gcPBM binding intensity (ln)” value came out at 6.76.

As for “AGAAAGTAAAGCTGTTGTACTATTATATATATTTTA [XGTACX_site8090]”, the “gcPBM binding intensity (ln)” value came to 6.38.

“GTAATACCCAAACACACACACATACCCATATATATA [CACACA_site5510]”: the “gcPBM binding intensity (ln)” value was determined as 7.1.

On to “GAGAGGATCATCAATTCACACACATAAAAATGAAGT [CACACA_site9010]”, for which the “gcPBM binding intensity (ln)” value was determined as 6.23.

“AACATATGATTAAACTGTACAAGAAAAATATAACAT [XGTACX_site4477]”: the “gcPBM binding intensity (ln)” value amounted to 7.46.

Regarding “ATAGTTTTTCCAATTCAAAAAAAAAAAAAAAAAAAA [CACACA_negctrl_site969]”, the “gcPBM binding intensity (ln)” value was 6.02.

For “TAAAAATATTATAATGCATGCAAAATATTGTTATAA [TGCATGCA_site244]”, the “gcPBM binding intensity (ln)” value stood at 6.25.

In the case of “AAAGTATAAATAAATACACACATATTTATTTATATA [CACACA_site7375]”, the “gcPBM binding intensity (ln)” value is 6.42.

On to “TATTATAGTATATATTGTACATATATATATTTTTTA [XGTACX_site8831]”, for which the “gcPBM binding intensity (ln)” value was determined as 6.5.

Take “ATAATAATATATAGTACACACAAAAATGGAAGTAAA [CACACA_site3318]”: the “gcPBM binding intensity (ln)” value was found to be 7.18.

With “TATATATAAGATTGATGTACGATTTTGGTGTCTTAT [XGTACX_site2611]”, the “gcPBM binding intensity (ln)” value turned out to be 6.25.

Regarding “TGTTATGAGAACAGCACACAAGCTACATCATATATA [CACACA_site870]”, the “gcPBM binding intensity (ln)” value is 6.3.

For “GAAATTATAAATTGGACACACACATAAAAAATATGT [CACACA_site7957]”, the “gcPBM binding intensity (ln)” value was found to be 6.28.

As for “TTCCTATTTCCTATGTGTACTTATAAATAAGTGTCT [XGTACX_site3725]”, the “gcPBM binding intensity (ln)” value was 6.92.

“TCCGCATGTACATGGGTGCACATAACACCCATTTAA [GTGCAC_site9881]”: the “gcPBM binding intensity (ln)” value stood at 8.53.

For the sequence “CTTTCTATATAAAATCGTACATATATAATATTATAT [XGTACX_site5807]”, the “gcPBM binding intensity (ln)” value came to 6.62.

Turning to “TAAATGTCTGTTAATGCACACGATATGTCTATATAT [CACACA_site2352]”, the “gcPBM binding intensity (ln)” value worked out at 9.69.

Consider “TATATTAAGAAACACACACACATATATATATATATA [CACACA_site1609]”, for which the “gcPBM binding intensity (ln)” value came out at 9.36.

As for “TATTTTTTAAAAAAATGTCATAAAATTTCTTTTTTC [XGTACX_negctrl_site271]”, the “gcPBM binding intensity (ln)” value turned out to be 5.89.

As for “AGAAAAAAATAATGTACACACACATATATGTTTATA [CACACA_site7946]”, the “gcPBM binding intensity (ln)” value was determined as 6.65.

For “ATATACAAAGGATTAACACACATATTATTATATATA [CACACA_site1880]”, the “gcPBM binding intensity (ln)” value came to 6.4.

On to “ATATATATATATATGTGTACTTATATATTTAAAAAA [XGTACX_site1761]”, for which the “gcPBM binding intensity (ln)” value came out at 9.13.

As to TTATACCTGATTTAGGTGCTATAAATTTGTGTTTTT, the “gcPBM binding intensity (ln)” value was found to be 6.25.

“ATATATATATATATATATATTTATATGTGAAAACCC [CACACA_negctrl_site845]”: the “gcPBM binding intensity (ln)” value amounted to 9.28.

Regarding “GTAATTTTATATGGTTGTACATATATATATATATAT [XGTACX_site6659]”, the “gcPBM binding intensity (ln)” value came out at 9.48.

“CAACAACAAAAAAAAAAATAATAATAATAAAAAATA [TGCATGCA_negctrl_site271]”: the “gcPBM binding intensity (ln)” value came out at 6.37.
